Residue numbers refer to the chain shown, from its start. Names may count otherwise. No constants are given. Whether binding was seen depends on the method and setting. Some entries that bind do so weakly or less than the wild type. For some of these results: Where a sequence is shown, tags or fusion partners need not be part of it.

By UniProt entry, the sequences of proteins in these tests, tags left out. Residues count along the entry.
UniProt O75334, residues 866-1193: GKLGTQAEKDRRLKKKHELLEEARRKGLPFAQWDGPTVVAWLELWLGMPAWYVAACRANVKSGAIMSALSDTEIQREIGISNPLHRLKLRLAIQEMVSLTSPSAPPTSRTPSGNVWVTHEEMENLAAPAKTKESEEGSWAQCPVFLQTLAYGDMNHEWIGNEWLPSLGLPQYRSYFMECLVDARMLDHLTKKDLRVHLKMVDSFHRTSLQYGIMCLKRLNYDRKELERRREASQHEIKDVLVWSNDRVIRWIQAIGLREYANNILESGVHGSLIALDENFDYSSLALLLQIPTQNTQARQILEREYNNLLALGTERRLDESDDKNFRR
UniProt O14936, residues 1-345: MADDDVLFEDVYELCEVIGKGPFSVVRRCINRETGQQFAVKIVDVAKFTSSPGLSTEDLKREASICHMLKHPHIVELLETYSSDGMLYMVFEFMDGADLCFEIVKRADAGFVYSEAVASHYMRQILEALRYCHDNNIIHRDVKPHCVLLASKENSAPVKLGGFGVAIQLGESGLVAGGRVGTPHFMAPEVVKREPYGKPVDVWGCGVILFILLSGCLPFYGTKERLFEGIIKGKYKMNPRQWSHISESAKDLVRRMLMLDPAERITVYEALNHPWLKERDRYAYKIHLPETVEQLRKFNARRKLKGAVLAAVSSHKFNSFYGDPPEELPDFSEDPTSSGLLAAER
UniProt P60469, residues 806-1126: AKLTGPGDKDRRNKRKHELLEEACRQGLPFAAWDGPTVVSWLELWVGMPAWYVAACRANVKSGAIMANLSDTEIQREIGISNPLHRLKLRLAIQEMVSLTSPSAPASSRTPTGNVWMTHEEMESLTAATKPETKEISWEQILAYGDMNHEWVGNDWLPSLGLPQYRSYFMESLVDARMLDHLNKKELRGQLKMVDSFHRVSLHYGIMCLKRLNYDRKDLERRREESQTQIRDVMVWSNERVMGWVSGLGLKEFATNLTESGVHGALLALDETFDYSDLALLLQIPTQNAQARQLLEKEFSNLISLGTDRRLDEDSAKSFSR

The source of these data is publication PMC6954185 (Nature Communications, 2020).

Experiment [1] addresses liprin-α2_SAM123 (C-terminal SAM repeats of human liprin-α2), Trx-His6-tagged (human) (UniProt O75334). As to the kind of experiment: SEC; analytical gel filtration, Superdex 200 Increase 10/300 GL; 50 mM Tris-HCl pH 7.5, 100 mM NaCl, 1 mM EDTA, 1 mM DTT; N-terminal tags kept; both purified.
In experiment [2] the target is α2_SAM123/LAR_D1D2 complex (formed beforehand) (human) (UniProt O75334+P10586). Described as above.
In experiment [3] the target is T1, liprin-β1_SAM123 (mouse), Trx-His6-tagged (mouse) (UniProt Q8C8U0).
T1 sequence: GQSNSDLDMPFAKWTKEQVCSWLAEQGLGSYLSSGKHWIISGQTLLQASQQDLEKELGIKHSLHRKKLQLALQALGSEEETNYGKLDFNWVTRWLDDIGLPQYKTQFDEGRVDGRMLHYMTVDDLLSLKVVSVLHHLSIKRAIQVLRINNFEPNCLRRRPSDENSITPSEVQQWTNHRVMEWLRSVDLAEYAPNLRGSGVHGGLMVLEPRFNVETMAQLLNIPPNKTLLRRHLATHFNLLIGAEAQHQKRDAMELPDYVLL
The description is as above.

Experiment [4] concerns the target T2, LAR_D1D2 F1829E mutant, His6-SUMO-tagged (human) (UniProt P10586).
T2 sequence: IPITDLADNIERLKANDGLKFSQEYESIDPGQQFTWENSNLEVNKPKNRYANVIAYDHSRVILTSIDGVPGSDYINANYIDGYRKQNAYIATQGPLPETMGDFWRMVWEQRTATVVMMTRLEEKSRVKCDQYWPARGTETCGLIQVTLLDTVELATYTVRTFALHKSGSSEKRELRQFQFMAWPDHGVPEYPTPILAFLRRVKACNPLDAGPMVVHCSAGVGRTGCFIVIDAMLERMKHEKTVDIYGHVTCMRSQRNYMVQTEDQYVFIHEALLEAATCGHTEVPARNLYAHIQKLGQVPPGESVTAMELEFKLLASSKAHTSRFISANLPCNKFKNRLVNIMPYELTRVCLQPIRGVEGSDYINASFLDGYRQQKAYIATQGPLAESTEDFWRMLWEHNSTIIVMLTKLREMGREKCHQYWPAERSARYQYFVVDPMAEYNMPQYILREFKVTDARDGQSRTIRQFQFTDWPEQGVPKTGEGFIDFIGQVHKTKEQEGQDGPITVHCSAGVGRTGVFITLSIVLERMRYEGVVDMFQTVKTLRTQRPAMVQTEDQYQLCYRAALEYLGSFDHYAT
As to the kind of experiment: ITC; VP-ITC at 25 °C; 50 mM Tris-HCl pH 7.5, 100 mM NaCl, 1 mM EDTA, 1 mM DTT; liprin-α fragments at 200 μM injected into LAR-RPTP fragments at 20 μM; one-site binding model; N-terminal tags kept; both purified.

For experiment [5], the target named is T2, LAR_D1D2 F1829E mutant, His6-SUMO-tagged (human). As to the kind of experiment: SEC; analytical gel filtration, Superdex 200 Increase 10/300 GL; 50 mM Tris-HCl pH 7.5, 100 mM NaCl, 1 mM EDTA, 1 mM DTT; N-terminal tags kept; both purified.
For experiment [6], the target named is LAR_D1D2 L1539C mutant (human) (UniProt P10586). As to the kind of experiment: cross-linking + SEC; site-specific disulfide cross-linking: LAR_D1D2 cysteine mutants incubated for 3 days at room temperature in 50 mM Tris-HCl pH 7.5, 100 mM NaCl, 1 mM EDTA without reducing reagent, then analytical gel filtration; oligomers reversible with DTT; both purified.
The target of experiment [7] is LAR_D1D2 T1593C mutant (human) (UniProt P10586). The experiment is described as above.

“CASK_CaMK (CaMK domain of calcium/calmodulin-dependent serine protein kinase) (from UniProt O14936 1-345) (domain or fragment)”: the binding result in experiment [1] and in experiment [2] was “binds” throughout.

As for “liprin-α2_SAM123 (C-terminal SAM repeats of human liprin-α2), Trx-His6-tagged (from UniProt O75334 866-1193) (domain or fragment)”, the binding result in experiment [3] is reported as “binds”.

For “liprin-α3_SAM123 (mouse), Trx-His6-tagged (from UniProt P60469 806-1126) (domain or fragment)”, the figures for the binding result in experiment [4] and in experiment [5] were “no binding (tested: 200 μM injected into 20 μM)” and “no binding”, respectively.

B1: LAR_D1D2 L1539C mutant (domain or fragment, UniProt P10586 1332-1907)
chain: T2 sequence with L208C, E498F
Regarding B1, the binding entry in experiment [6] was “no binding”.

B2: LAR_D1D2 T1593C mutant (domain or fragment, UniProt P10586 1332-1907)
chain: T2 sequence with T262C, E498F
For B2, in experiment [7], the binding result is recorded as “no binding”.
